For data set [1], the target named is GST-APC-C (aa 2167-2843) (UniProt P25054 partial chain). The experiment in a line: pull-down.
Data set [2] concerns the molecule itself. The experiment in a line: SEC.

Chain of UniProt P25054 (P25054 2167-2843): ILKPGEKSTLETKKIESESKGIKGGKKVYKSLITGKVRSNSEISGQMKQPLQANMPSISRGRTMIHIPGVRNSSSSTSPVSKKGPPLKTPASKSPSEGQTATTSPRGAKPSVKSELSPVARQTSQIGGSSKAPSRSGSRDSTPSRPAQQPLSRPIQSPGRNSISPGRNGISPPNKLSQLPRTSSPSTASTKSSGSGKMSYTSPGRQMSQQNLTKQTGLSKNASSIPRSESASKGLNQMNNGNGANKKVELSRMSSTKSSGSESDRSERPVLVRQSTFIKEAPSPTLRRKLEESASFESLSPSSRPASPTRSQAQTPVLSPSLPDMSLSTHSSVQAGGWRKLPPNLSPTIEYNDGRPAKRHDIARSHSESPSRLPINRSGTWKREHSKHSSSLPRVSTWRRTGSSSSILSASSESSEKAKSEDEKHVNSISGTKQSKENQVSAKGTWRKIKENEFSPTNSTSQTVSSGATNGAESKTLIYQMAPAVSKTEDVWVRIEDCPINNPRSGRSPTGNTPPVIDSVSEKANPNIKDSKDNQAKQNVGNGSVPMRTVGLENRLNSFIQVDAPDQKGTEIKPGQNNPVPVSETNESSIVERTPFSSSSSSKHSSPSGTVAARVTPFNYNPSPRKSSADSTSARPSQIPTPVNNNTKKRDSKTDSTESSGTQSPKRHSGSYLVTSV

B1: His-FH1FH2mDia2, wild type ([…]) (domain or fragment)
chain: not shown
Usually stoichiometry N stands for the number of molecules, sites or subunits per partner or assembly. For the molecule B1, the binding result in data set [1] was “binds”. Further, the “stoichiometry N” value in data set [2] came out at 2.

B2: I704A His-FH1FH2mDia2 (domain or fragment)
chain: not shown
B2: the binding result in data set [1] was “binds”. For the same molecule, in data set [2], the “stoichiometry N” value was 2.

B3: K853A His-FH1FH2mDia2 (domain or fragment)
chain: not shown
Turning to B3, the binding result in data set [1] is given as “binds”.

For the origin of these results see PMC2364705 (The Journal of Cell Biology, 2008).
